Some of the results follow. Values were computed here from the reads of four pooled replicates and scatter widely.
target: T1, Pho4 (S. cerevisiae) (UniProt P07270); experiment: relative binding free energy (BET-seq); higher = weaker binding; details: reference: library average
T1 sequence: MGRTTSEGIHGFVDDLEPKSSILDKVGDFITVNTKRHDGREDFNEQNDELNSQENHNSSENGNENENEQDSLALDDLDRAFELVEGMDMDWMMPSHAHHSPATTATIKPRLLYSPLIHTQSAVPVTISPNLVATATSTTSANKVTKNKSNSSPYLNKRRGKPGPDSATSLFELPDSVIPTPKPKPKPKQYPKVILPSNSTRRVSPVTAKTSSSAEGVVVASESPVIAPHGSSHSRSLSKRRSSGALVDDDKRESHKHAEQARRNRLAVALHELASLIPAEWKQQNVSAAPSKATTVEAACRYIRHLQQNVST

How did the “relative binding free energy” value turn out when GGCCTCACGTGAGGTG was run?
The value was 0.3 kcal/mol.

TACTTCACGTGTGTAG was tested. Which “relative binding free energy” value did it give?
Its value is 0.16 kcal/mol.

For GTAAGCACGTGAGGGA, which “relative binding free energy” value is on record?
Its value is 0.23 kcal/mol.

With ATCATCACGTGGGGAG as the sequence, how does the “relative binding free energy” value read?
Its value is 0 kcal/mol.

For TAGTACACGTGTTGGA, which “relative binding free energy” value is on record?
Its value is -0.05 kcal/mol.

Which “relative binding free energy” value does the source give for CTTGTCACGTGTAGAG here?
The value was 0.04 kcal/mol.

For CTGTGCACGTGTGAAG, which “relative binding free energy” value is on record?
Its value is -0.03 kcal/mol.

With TTTAGCACGTGCTGGC as the sequence, how does the “relative binding free energy” value read?
Its value is 0.01 kcal/mol.

With TAGGACACGTGGGCTT as the sequence, how does the “relative binding free energy” value read?
The value was -0.08 kcal/mol.

How did the “relative binding free energy” value turn out when AATTCCACGTGTATGG was run?
The value was 0.19 kcal/mol.

TCCGTCACGTGGTGGT was tested. Which “relative binding free energy” value did it give?
Its value is 0.06 kcal/mol.

With GGTGCCACGTGTCTTG as the sequence, how does the “relative binding free energy” value read?
The value was 0 kcal/mol.

With ATTAACACGTGCGGGT as the sequence, how does the “relative binding free energy” value read?
The value was -0.08 kcal/mol.

TTTAACACGTGGGTAG was tested. Which “relative binding free energy” value did it give?
The value was -0.12 kcal/mol.

TGGGGCACGTGTGCGC was tested. Which “relative binding free energy” value did it give?
Its value is -0.1 kcal/mol.

With AAGTGCACGTGTTATA as the sequence, how does the “relative binding free energy” value read?
The value was -0.06 kcal/mol.

For TAATACACGTGGCTGT, which “relative binding free energy” value is on record?
Its value is 0.09 kcal/mol.

With GTAGTCACGTGCGGAA as the sequence, how does the “relative binding free energy” value read?
Its value is 0.08 kcal/mol.

With GTCCGCACGTGGGTTT as the sequence, how does the “relative binding free energy” value read?
Its value is -0.13 kcal/mol.

With TTTGACACGTGAGTAA as the sequence, how does the “relative binding free energy” value read?
The value was 0.19 kcal/mol.

TTTTACACGTGTGCCG was tested. Which “relative binding free energy” value did it give?
Its value is 0.12 kcal/mol.

Which “relative binding free energy” value does the source give for CTGAGCACGTGGTAAG here?
Its value is -0.03 kcal/mol.

How did the “relative binding free energy” value turn out when ATGTACACGTGGCTGG was run?
The value was -0.12 kcal/mol.

With AGCGTCACGTGTTTGG as the sequence, how does the “relative binding free energy” value read?
The value was 0.13 kcal/mol.

GTTTTCACGTGCTATG was tested. Which “relative binding free energy” value did it give?
Its value is 0.21 kcal/mol.

How did the “relative binding free energy” value turn out when TGGACCACGTGTCTGG was run?
The value was 0.09 kcal/mol.

With AGCGTCACGTGATAGG as the sequence, how does the “relative binding free energy” value read?
Its value is 0.2 kcal/mol.

Which “relative binding free energy” value does the source give for AATTGCACGTGCATGT here?
The value was -0.1 kcal/mol.

TTGTACACGTGATGGT was tested. Which “relative binding free energy” value did it give?
The value was 0.26 kcal/mol.

For GGGCGCACGTGCATGT, which “relative binding free energy” value is on record?
Its value is -0.11 kcal/mol.

Which “relative binding free energy” value does the source give for TGTTGCACGTGGTTCT here?
Its value is -0.04 kcal/mol.

CGCGTCACGTGGGATG was tested. Which “relative binding free energy” value did it give?
The value was -0.18 kcal/mol.

For CAGGACACGTGGTGAG, which “relative binding free energy” value is on record?
Its value is 0.04 kcal/mol.

For CTTGGCACGTGCGGGC, which “relative binding free energy” value is on record?
The value was -0.26 kcal/mol.

ATGTCCACGTGTTGCT was tested. Which “relative binding free energy” value did it give?
The value was 0.1 kcal/mol.

Which “relative binding free energy” value does the source give for GTCGGCACGTGGGGCT here?
The value was -0.13 kcal/mol.

With GAGGCCACGTGGGGTG as the sequence, how does the “relative binding free energy” value read?
The value was -0.25 kcal/mol.

For TGGTACACGTGTCATA, which “relative binding free energy” value is on record?
Its value is 0.05 kcal/mol.

With TGGAGCACGTGATTGG as the sequence, how does the “relative binding free energy” value read?
Its value is 0.01 kcal/mol.

With TTTGACACGTGACTAG as the sequence, how does the “relative binding free energy” value read?
Its value is 0.21 kcal/mol.

For GTCGTCACGTGTAGTT, which “relative binding free energy” value is on record?
Its value is 0.16 kcal/mol.

How did the “relative binding free energy” value turn out when GTACGCACGTGAGCGG was run?
The value was 0.19 kcal/mol.

With TTTGACACGTGGGAAC as the sequence, how does the “relative binding free energy” value read?
Its value is 0.04 kcal/mol.

For TTTGCCACGTGTCGTT, which “relative binding free energy” value is on record?
Its value is -0.04 kcal/mol.

How did the “relative binding free energy” value turn out when TTAGCCACGTGGATGT was run?
The value was -0.1 kcal/mol.

Which “relative binding free energy” value does the source give for GGCAACACGTGATTGT here?
The value was 0.27 kcal/mol.

With TACCTCACGTGGTGGT as the sequence, how does the “relative binding free energy” value read?
Its value is 0.24 kcal/mol.

For TAGCTCACGTGTGGGG, which “relative binding free energy” value is on record?
The value was 0.31 kcal/mol.

Which “relative binding free energy” value does the source give for GCTAACACGTGGTTTG here?
The value was -0.01 kcal/mol.

How did the “relative binding free energy” value turn out when TTGCGCACGTGAGGTC was run?
The value was 0.21 kcal/mol.

With ATTTTCACGTGCGGTC as the sequence, how does the “relative binding free energy” value read?
The value was 0.37 kcal/mol.

With GGGCTCACGTGTTCGG as the sequence, how does the “relative binding free energy” value read?
The value was 0.24 kcal/mol.

TGTAGCACGTGCTTTT was tested. Which “relative binding free energy” value did it give?
The value was -0.15 kcal/mol.

AGGGACACGTGTGGGC was tested. Which “relative binding free energy” value did it give?
Its value is 0.13 kcal/mol.

How did the “relative binding free energy” value turn out when CTTGTCACGTGTGCAG was run?
Its value is 0.15 kcal/mol.

Which “relative binding free energy” value does the source give for GATCGCACGTGGCGTG here?
The value was -0.05 kcal/mol.

Which “relative binding free energy” value does the source give for GGGGACACGTGGTATT here?
The value was 0.05 kcal/mol.

TATTCCACGTGGATTG was tested. Which “relative binding free energy” value did it give?
The value was 0.06 kcal/mol.

TTAGGCACGTGGCAGA was tested. Which “relative binding free energy” value did it give?
The value was -0.19 kcal/mol.

GTGCTCACGTGCTTGT was tested. Which “relative binding free energy” value did it give?
The value was 0.27 kcal/mol.

GTTCGCACGTGTATGG was tested. Which “relative binding free energy” value did it give?
Its value is 0 kcal/mol.

With TTGGACACGTGTTAAT as the sequence, how does the “relative binding free energy” value read?
The value was 0.1 kcal/mol.

For ATTGCCACGTGGTTGG, which “relative binding free energy” value is on record?
Its value is -0.23 kcal/mol.

Which “relative binding free energy” value does the source give for TGGTACACGTGAGGGA here?
Its value is 0.27 kcal/mol.

For AGTCGCACGTGCAGGG, which “relative binding free energy” value is on record?
Its value is -0.11 kcal/mol.

Which “relative binding free energy” value does the source give for CTGGTCACGTGGGATG here?
Its value is 0.02 kcal/mol.

For GGTTGCACGTGAGGTG, which “relative binding free energy” value is on record?
Its value is 0.26 kcal/mol.

How did the “relative binding free energy” value turn out when GTGGTCACGTGTGTTT was run?
Its value is 0.29 kcal/mol.

Which “relative binding free energy” value does the source give for GTCGGCACGTGAGTTA here?
Its value is 0.1 kcal/mol.

For TGAAACACGTGAATGT, which “relative binding free energy” value is on record?
Its value is 0.38 kcal/mol.

How did the “relative binding free energy” value turn out when AGACGCACGTGTCGGG was run?
The value was -0.06 kcal/mol.

Which “relative binding free energy” value does the source give for TGAATCACGTGTTTGT here?
The value was 0.03 kcal/mol.

How did the “relative binding free energy” value turn out when TATTGCACGTGTTGGA was run?
Its value is -0.02 kcal/mol.

CGAAGCACGTGGGTTT was tested. Which “relative binding free energy” value did it give?
Its value is -0.16 kcal/mol.

With GTGGTCACGTGATTTG as the sequence, how does the “relative binding free energy” value read?
Its value is 0.21 kcal/mol.

How did the “relative binding free energy” value turn out when TACTGCACGTGAGGGT was run?
The value was 0.12 kcal/mol.

Which “relative binding free energy” value does the source give for TTGGTCACGTGAAGGT here?
Its value is 0.31 kcal/mol.

AGGGGCACGTGAGTAA was tested. Which “relative binding free energy” value did it give?
The value was -0.01 kcal/mol.

Which “relative binding free energy” value does the source give for TGGAACACGTGTATGT here?
The value was 0.09 kcal/mol.

How did the “relative binding free energy” value turn out when GGTAGCACGTGGAGTA was run?
The value was 0.06 kcal/mol.

AAGAGCACGTGGTCTG was tested. Which “relative binding free energy” value did it give?
Its value is -0.2 kcal/mol.

Which “relative binding free energy” value does the source give for TGGGGCACGTGCTTAT here?
Its value is -0.14 kcal/mol.

How did the “relative binding free energy” value turn out when GATGTCACGTGAGGGA was run?
The value was 0.26 kcal/mol.

For TCGGTCACGTGTTGTT, which “relative binding free energy” value is on record?
Its value is 0.18 kcal/mol.

With TTCGGCACGTGAGTTA as the sequence, how does the “relative binding free energy” value read?
Its value is 0.1 kcal/mol.

How did the “relative binding free energy” value turn out when GAAGGCACGTGTGACG was run?
The value was 0.05 kcal/mol.

With GCGTTCACGTGAATGG as the sequence, how does the “relative binding free energy” value read?
The value was 0.28 kcal/mol.

For ATCATCACGTGGGGTG, which “relative binding free energy” value is on record?
Its value is -0.06 kcal/mol.

With CCGTTCACGTGGTGTT as the sequence, how does the “relative binding free energy” value read?
The value was 0.24 kcal/mol.

With TTAGACACGTGTTGTA as the sequence, how does the “relative binding free energy” value read?
The value was 0.01 kcal/mol.

How did the “relative binding free energy” value turn out when AGAAACACGTGGTTAG was run?
The value was 0.04 kcal/mol.

Which “relative binding free energy” value does the source give for TACGGCACGTGGGGAG here?
Its value is -0.31 kcal/mol.

How did the “relative binding free energy” value turn out when TTTGTCACGTGGGGCC was run?
The value was 0.05 kcal/mol.

With AAGGGCACGTGTAGAG as the sequence, how does the “relative binding free energy” value read?
Its value is -0.11 kcal/mol.

TGTCGCACGTGAAAGT was tested. Which “relative binding free energy” value did it give?
The value was 0.24 kcal/mol.

Which “relative binding free energy” value does the source give for GTAGGCACGTGGCGTG here?
Its value is -0.11 kcal/mol.

How did the “relative binding free energy” value turn out when TTTTACACGTGGTGTA was run?
The value was 0.03 kcal/mol.

Which “relative binding free energy” value does the source give for TGTTTCACGTGATGTT here?
The value was 0.4 kcal/mol.

Which “relative binding free energy” value does the source give for CTGTTCACGTGGGAAT here?
The value was 0.31 kcal/mol.

How did the “relative binding free energy” value turn out when TATGTCACGTGTAGCG was run?
The value was 0.05 kcal/mol.

How did the “relative binding free energy” value turn out when GGTAGCACGTGGTTGG was run?
Its value is 0.03 kcal/mol.

With GTACGCACGTGGAGGT as the sequence, how does the “relative binding free energy” value read?
Its value is -0.19 kcal/mol.

Which “relative binding free energy” value does the source give for TAGAGCACGTGGGTAC here?
The value was -0.25 kcal/mol.

Which “relative binding free energy” value does the source give for GTTGTCACGTGTCGGT here?
Its value is 0.14 kcal/mol.

Which “relative binding free energy” value does the source give for GGTTTCACGTGGGGCC here?
The value was 0.29 kcal/mol.

GTCTACACGTGTGGAT was tested. Which “relative binding free energy” value did it give?
Its value is 0.24 kcal/mol.

Which “relative binding free energy” value does the source give for TATTTCACGTGCTTAA here?
Its value is 0.19 kcal/mol.

How did the “relative binding free energy” value turn out when AAGGTCACGTGGATTA was run?
The value was 0.2 kcal/mol.

For GGGCGCACGTGAGTGA, which “relative binding free energy” value is on record?
The value was 0.16 kcal/mol.

ATCATCACGTGTTGAG was tested. Which “relative binding free energy” value did it give?
Its value is 0.22 kcal/mol.

For GTTCACACGTGGTGTG, which “relative binding free energy” value is on record?
Its value is -0.04 kcal/mol.

How did the “relative binding free energy” value turn out when AAAATCACGTGGGCTG was run?
The value was 0.15 kcal/mol.

TCAGTCACGTGGGATG was tested. Which “relative binding free energy” value did it give?
The value was 0.12 kcal/mol.

With TAATGCACGTGGAGGG as the sequence, how does the “relative binding free energy” value read?
The value was -0.1 kcal/mol.

How did the “relative binding free energy” value turn out when ATAAGCACGTGTATTG was run?
Its value is -0.03 kcal/mol.

Source: the BET-seq Pho4 binding data (Le et al. 2018)
